Assay results as given in PubChem BioAssay AID485294 (National Center for Advancing Translational Sciences (NCATS), 2010).
Screen size: about 370,000 compounds; about 150 (0.041%) were called active. Inconclusive results, whose numbers are uncertain, are shown with a selection of clear calls. Calls follow the shape of the dose curve; as a rule, active = well fitted inhibition curve with a large enough effect; inconclusive = small, poorly fitted or top-dose-only effect; inactive = flat fitted curve, though single readings scatter. No potency is given beside an inconclusive call; the fits are too rough.

Molecular target: Beta-lactamase (Escherichia coli (strain K12)) (UniProt P00811)
Assay: qHTS Inhibitors of AmpC Beta-Lactamase (assay with detergent); also: nearly all actives have a fitted effect of over 25% in size
Conditions: AmpC hydrolysis of nitrocefin, absorbance 480 nm, 0.01% Triton; series mostly up to 114 µM
How it was run: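 AmpC (5.3 nM in the dispensed reagent) in 20 mM phosphate pH 7.0 with 0.01% (detergent screen) or 0.0001% Triton X-100 was preincubated with compounds for 15 min at room temperature. Nitrocefin was then added from an 800 uM solution, and hydrolysis was followed at 480 nm.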
Potency is read from the fitted curve at half-maximal effect; tags tell the direction and shape of the fitted curve.

UniProt P00811, sequence (P00811 whole entry, looked up): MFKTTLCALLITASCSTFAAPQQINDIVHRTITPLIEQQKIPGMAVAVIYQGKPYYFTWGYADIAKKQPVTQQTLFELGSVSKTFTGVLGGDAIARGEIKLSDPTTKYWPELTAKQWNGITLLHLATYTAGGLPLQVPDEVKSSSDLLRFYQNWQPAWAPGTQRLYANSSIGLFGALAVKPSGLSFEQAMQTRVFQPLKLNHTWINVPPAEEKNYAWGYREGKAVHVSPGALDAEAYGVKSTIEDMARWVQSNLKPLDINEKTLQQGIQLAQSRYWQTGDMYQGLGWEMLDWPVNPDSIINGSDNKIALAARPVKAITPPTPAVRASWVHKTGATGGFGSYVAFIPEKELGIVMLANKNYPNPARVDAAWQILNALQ

Structure (SMILES) | Potency
CCCN(C(=O)CCOc1ccc(C(C)(C)C)cc1)c1c(N)n(Cc2ccccc2)c(=O)[nH]c1=O | inconclusive [inhibitor, partial curve, poor fit]
Cc1ccc(OCc2nc(C#N)c(N3CCN(Cc4ccccc4)CC3)o2)cc1 | inconclusive [inhibitor, full curve, poor fit]
COc1nnc(-c2ccccc2)s1 | inconclusive [inhibitor, partial curve]
CCN(CC)S(=O)(=O)c1cccc(C(=O)N[C@H](C(=O)Nc2nc3ccccc3s2)C(C)C)c1 | inactive
O=C(C[n+]1cccc(CNC(=O)c2ccc(OC(F)F)cc2)c1)Nc1ccccc1Cl | inactive
O=C(c1cc(-c2ccc(Cl)cc2)on1)N1CCOCC1 | inconclusive [inhibitor, full curve, poor fit]
COc1ccc(NC(=O)N2CCc3ccccc3C2)cc1 | inconclusive [inhibitor, full curve]
COC(=O)c1ccc(CSc2nnnn2-c2ccccc2)o1 | inconclusive [inhibitor, partial curve, poor fit]
CNc1cc(NS(=O)(=O)c2ccc(N)cc2)nc(NC)n1 | inconclusive [inhibitor, full curve]
COC(=O)c1cc2ccccn2c2c(C(=O)OC)c(C(=O)OC)cc1-2 | inactive
Cc1cc(N)n(-c2ccc(Cl)cc2)n1 | inconclusive [inhibitor, full curve, poor fit]
CC(=O)C(Sc1nc(N(C)C)nc(N(C)C)n1)C(=O)Nc1ccccc1 (configuration not stated) | inconclusive [inhibitor, full curve, poor fit]
COc1ccc(-c2ccc(CCC(=O)O)n2C(C)C)cc1 | inconclusive [inhibitor, full curve, poor fit]
CCSc1nnc(-c2ccc(S(=O)(=O)NCc3cccs3)cc2)o1 | inconclusive [inhibitor, full curve, poor fit]
CCc1cc(C(=O)N(C)CC(=O)Nc2c(Cl)cccc2Cl)sc1C | inactive
CSc1nc(-c2ccccc2)nn1S(=O)(=O)c1ccc(Cl)cc1 | inconclusive [inhibitor, single point]
Clc1ccc2oc3c(Cl)ncnc3c2c1 | inconclusive [inhibitor, full curve, poor fit]
COc1ccc(-c2cc(C(=O)Nc3cccnc3)no2)cc1OC | inactive
C=CCOc1c(Br)cc(/C=N/O)cc1OCC | inconclusive [inhibitor, partial curve]
Cn1c(Cn2nnc3ccccc32)nnc1SCC(=O)c1ccc(F)cc1 | inconclusive [inhibitor, full curve, poor fit]
COc1ccc(CNC(=O)Cc2ccc(NC(=O)N3CCSc4ncccc43)cc2)cc1OC | inactive
O=C1c2ccccc2CN1C(CO)c1ccccc1 (configuration not stated) | inconclusive [inhibitor, partial curve, poor fit]
COC(=O)/C(=N/Nc1ccc(C)cc1)N1CCCc2ccccc21 | inconclusive [inhibitor, full curve, poor fit]

Structure (SMILES) | Potency
O=C1CN(C(=O)CSc2nnnn2-c2ccc(Cl)cc2)c2ccccc2N1 | inconclusive [inhibitor, partial curve]
O=C(OCC1OC(Oc2ccc(O)cc2)C(O)C(O)C1O)c1ccccc1 (configuration not stated) | inconclusive [inhibitor, partial curve, poor fit]
O=C(Nc1ccc(F)cc1)c1cccc(N2C(=O)C3C4C=CC(C5CC45)C3C2=O)c1 (configuration not stated) | inconclusive [inhibitor, full curve, poor fit]
O=C(COc1cc(F)ccc1[N+](=O)[O-])Nc1ccc(N2CCOCC2)cc1 | inactive
CSc1nc2nc(C(F)(F)F)cc(-c3ccccc3)n2n1 | inactive
Cc1cccn2cc(CNC(=O)C3CCCCC3)nc12 | inconclusive [inhibitor, full curve, poor fit]
CCN(CC)S(=O)(=O)c1ccc(C(=O)C(C#N)c2ccccn2)cc1 (configuration not stated) | inconclusive [inhibitor, partial curve, poor fit]
CCN(CC)S(=O)(=O)c1ccc2c3c(cccc13)C(=O)N2 | inconclusive [inhibitor, full curve, poor fit]
COc1ccc(C)cc1Nc1n[n+](-c2ccccc2)c(-c2cc(OC)c(OC)cc2Br)s1 | inconclusive [inhibitor, partial curve]
O=S(=O)(NC1c2cccc3cccc(c23)C1N1CCNCC1)c1ccccc1 (configuration not stated) | inactive
CCOC(=O)C1=C(COC(=O)c2c(OC)cccc2OC)NC(=O)NC1C (configuration not stated) | inconclusive [inhibitor, full curve]
COC(=O)/C=C1\NCCSC1=O | inconclusive [inhibitor, full curve, poor fit]
CCOCC(=O)Nc1ccc(C(=O)Nc2ccccc2Cl)cc1 | inactive
O=C(Nc1ccccc1Oc1cccnc1)C1CCCN(Cc2ccc(F)cc2)C1 (configuration not stated) | inactive
O=C1C(Cl)=C(N2CCOCC2)C(=O)N1c1ccccc1Cl | inconclusive [inhibitor, full curve, poor fit]
Cc1ccc(-c2c(C)c(-c3ccc(F)cc3)nc(N)c2C#N)o1 | inactive
Cc1ccc2nc(-c3ccccc3)cc(C(=O)N3CC(C)OC(C)C3)c2c1 (configuration not stated) | inconclusive [inhibitor, single point]
COc1ccc(/C(O)=C2/C(=O)C(=O)N(CCN(C)C)C2c2ccccn2)cc1OC (configuration not stated) | inactive
O=C(NNC(=O)c1ccccc1O)c1ccc(Cl)c(S(=O)(=O)N2CCc3ccccc32)c1 | inconclusive [inhibitor, full curve, poor fit]
C/C(=N\O)c1c(C)c2ccccc2n1C | inconclusive [inhibitor, partial curve, poor fit]
CCn1c(Oc2ccccc2F)nc2c1c(=O)n(C)c(=O)n2C | inconclusive [inhibitor, full curve, poor fit]
COc1cccc(N2CCN(C(=O)CCc3nnc4ccc(N5CCCC5)nn34)CC2)c1 | inactive
O=C(NC(NC(=S)Nc1ccccc1C(=O)O)C(Cl)(Cl)Cl)c1ccccc1 (configuration not stated) | inconclusive [inhibitor, full curve, poor fit]

Structure (SMILES) | Potency
CCSc1nnc2c(Cl)cc(Cl)cn12 | inconclusive [inhibitor, full curve, poor fit]
CN1CCN(S(=O)(=O)c2cccc(C(=O)Nc3sc4c(c3-c3nc5ccccc5[nH]3)CCCC4)c2)CC1 | inactive
CCOc1ccccc1C(=O)N[C@H](C(=O)OCc1cc(=O)oc2cc(C)ccc12)C(C)C | inconclusive [inhibitor, full curve, poor fit]
CC1CN(S(=O)(=O)c2cccc(C(=O)OCC(=O)NCc3ccccc3)c2)CC(C)O1 (configuration not stated) | inconclusive [inhibitor, full curve]
Cn1c(SCC(N)=O)nnc1C1CCN(C(=O)NC2CCCCC2)CC1 | inconclusive [inhibitor, full curve, poor fit]
COC(=O)c1c(N2C(=O)[C@H]3[C@@H](C2=O)[C@]2(C(=O)Nc4ccc(C)cc42)N2CCC[C@@H]32)sc(C)c1C | inconclusive [inhibitor, partial curve]
CN1CCC(NC(=O)c2cccc(Oc3ccccc3)c2)CC1 | inactive
CCc1cc(C(=O)Nc2ccccc2)cs1 | inconclusive [inhibitor, full curve]
NC(CO)C(O)c1ccc([N+](=O)[O-])cc1 (configuration not stated) | inconclusive [inhibitor, full curve, poor fit]
COc1ccccc1CNCc1cc(OC)c(OC)cc1OC | inconclusive [inhibitor, single point]
Oc1cccc(Nc2nc(NCC3CCCO3)c3ccccc3n2)c1 (configuration not stated) | inconclusive [inhibitor, single point]
NS(=O)(=O)c1ccc(C(=O)O)cc1 | inconclusive [inhibitor, partial curve]
O=C(O)COc1ccc(NC(=O)c2ccc(NC(=O)c3ccco3)cc2)cc1 | inconclusive [inhibitor, single point]
CCCCN(C)C(=O)c1ccc2c(c1)N(Cc1cccc(F)c1)C(=O)c1ccccc1S2 | inactive
C=CCSc1n[nH]c(-c2cccs2)n1 | inconclusive [inhibitor, single point]
CSc1ccccc1NC(=O)CSc1n[nH]c(N)n1 | inconclusive [inhibitor, full curve, poor fit]
CCCCCN(C(=O)CCC(=O)OCc1cccc(F)c1)c1c(N)n(CCCC)c(=O)[nH]c1=O | inconclusive [inhibitor, full curve, poor fit]
CCCCCCC(=O)N(O)C1CC(=O)N(Cc2ccccc2)C1=O (configuration not stated) | inconclusive [inhibitor, full curve]
COc1ccc(NC(=O)c2oc3ccccc3c2NC(=O)C2CCCCC2)c(OC)c1 | inactive
CCCCN(C(=O)CN1C(=O)C2CCCCC2C1=O)c1c(N)n(CCC)c(=O)[nH]c1=O (configuration not stated) | inconclusive [inhibitor, full curve, poor fit]
CCc1ccc(S(=O)(=O)Nc2nccs2)cc1 | inactive
